# Measurements from PubChem BioAssay AID504466 (National Center for Advancing Translational Sciences (NCATS), 2011).
# The campaign covered roughly 330,000 compounds. About 4,200 (1.3%) were called active. The inconclusive results got no clear call from the source; some entries with a clear call stand among them for comparison. Calls follow the shape of the dose curve; as a rule, active = well fitted activation curve with a large enough effect; inconclusive = small, poorly fitted or top-dose-only effect; inactive = no such curve, though single readings can be large or run the other way. Potencies beside an inconclusive call are fits to weak or partial responses and may not hold up.
# Test: qHTS screen for small molecules that induce genotoxicity in human embryonic kidney (HEK293T) cells expressing luciferase-tagged ELG1; also: nearly all actives have a fitted effect of over 60% in size; as to activity change, positive = activation: % of control where 0% means no effect
# Settings: HEK293T ELG1-luciferase reporter, luminescence, 16 h; series mostly up to 46 µM; activity change, positive = activation: at the top concentration
# Procedure, shortened: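 Genotoxic stress is detected as increased luminescence from luciferase-tagged ELG1 in HEK293T cells, measured with ONE-Glo after a 16 hr treatment at 37 °C.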
# Potency is read from the fitted curve at half-maximal effect; tags tell the direction and shape of the fitted curve.
SMILES,Potency,"activity change, positive = activation"
Oc1ccc(Br)cc1C1Nc2ccccc2S1 (stereo unspecified),"inconclusive: 18.3 µM [activator, partial curve, poor fit]",
COc1ccc(OC)c(C2c3[nH]c4ccccc4c3C[C@H]3C(=O)N(CCCOC(C)C)CC(=O)N23)c1 (stereo partly specified),,inactive: 0.248%
CCOc1ccc(N(CC(=O)Nc2ccccc2OCC)S(=O)(=O)c2c(C)noc2C)cc1,"inconclusive: 3.66 µM [activator, full curve, poor fit]",
Cc1ccc(C2(C)NC(=O)N(CC(=O)Nc3ccc(-c4nc5ccc(C)cc5s4)cc3)C2=O)cc1 (stereo unspecified),"inconclusive: 1.46 µM [activator, partial curve, poor fit]",
COc1ccccc1C(=O)NCCC(=O)NCC(c1ccc(F)cc1)N1CCOCC1 (stereo unspecified),,inactive: 1.14%
Cc1ccc2[nH]c(O)c(N=O)c2c1,,inactive: 5.68%
Cc1ccc(NC(=O)N2CCc3ccccc32)cc1,"inconclusive: 1.16 µM [activator, partial curve]",
O=C(NNc1nc2c(F)cccc2s1)c1cc(=O)c2ccccc2o1,"inconclusive: 18.3 µM [activator, single point]",
CCOC(=O)c1cc2sc(C)cc2n1CC(=O)NCCc1ccccc1,"inconclusive: 32.6 µM [activator, partial curve, poor fit]",
O=C(CCCc1ccccc1)NCCc1ccccc1,"inconclusive: 20.6 µM [activator, partial curve, poor fit]",
CCC(=O)c1ccc(OCc2ccccc2)c(OC)c1,"inconclusive: 20.6 µM [activator, partial curve]",
O=C(COc1ccccc1C(=O)Nc1ccccc1)NCCc1ccccc1,,inactive: -1.79%
O=C(COc1ccc(C2SCCS2)cc1)NNC(=O)C(Cl)Cl,"inconclusive: 20.6 µM [activator, partial curve, poor fit]",
CN(C(=O)COC(=O)CCc1c[nH]c2ccccc12)C(c1ccccc1)c1ccccc1,,inactive: 0.0279%
COc1cc(SC)ccc1C(=O)Nc1ccccn1,"inconclusive: 0.82 µM [activator, partial curve]",
Cc1ccc(NC(=O)n2ncc3c(C)cccc32)c(C)c1,"inconclusive: 10.3 µM [activator, partial curve, poor fit]",
C=CCNc1ncnc2c1cnn2-c1ccc(OC)cc1,"inconclusive: 1.84 µM [activator, full curve]",
Cn1c(SCC(=O)c2ccccc2)nnc1-c1cccc(N)c1,"inconclusive: 12.6 µM [activator, partial curve]",
Cc1[nH]n(-c2cccc(Cl)c2)c(=O)c1C=NC12CN3CN(CN(C3)C1)C2,,inactive: 1.01%
CN(C(=O)c1ccccn1)c1nnc(-c2ccccn2)s1,"inconclusive: 5.8 µM [activator, full curve]",
CN1CCN(c2ccc(NC(=O)N3CCc4ccccc43)cc2)CC1,active: 0.461 µM,
COCCCNC(=O)Cn1cnc2c(NCc3ccccc3)ncnc21,,inactive: 3.45%
O=C(Nc1cc2c3c(c1)CC(=O)N3CCC2)c1ccco1,"inconclusive: 20.6 µM [activator, single point]",
C/C(=N\NC(=O)c1cccc(S(=O)(=O)N2CCOCC2)c1)c1ccc(C)cc1,,inactive: 0.846%
COc1ccc(-c2nnc(NC(=O)CSc3ccc(Cl)cc3)s2)cc1OC,"inconclusive: 25.9 µM [activator, single point]",
c1ccc(-c2nnn(C34CC5CC(CC(C5)C3)C4)n2)cc1,"inconclusive: 23.1 µM [activator, partial curve, poor fit]",

SMILES,Potency,"activity change, positive = activation"
COc1cccc(N/C=C/c2onc(C)c2[N+](=O)[O-])c1,"inconclusive: 7.3 µM [activator, partial curve]",
COc1ccc(NC(=O)C2CCN(S(=O)(=O)c3ccc4c(c3)NC(=O)C(C)S4)CC2)cc1 (stereo unspecified),,inactive: -8.16%
O=C(Nc1ccon1)c1sc2cc(F)ccc2c1Cl,"inconclusive: 32.6 µM [activator, partial curve, poor fit]",
Cc1cccc(-n2ncc3c(NCc4ccc5c(c4)OCO5)ncnc32)c1,"inconclusive: 18.4 µM [activator, single point]",
O=C1SC(SCc2ccccc2Cl)=N/C1=C\c1ccc(C(=O)O)cc1,,inactive: -0.467%
O=C1CCCc2nc(N3CCN(C(=O)c4ccco4)CC3)ncc21,active: 20.6 µM,
Cc1ccc(NC(=O)Cn2c(C)cc(C)c(C#N)c2=O)c(Cl)c1,,inactive: -0.837%
O=C(Nc1ccc(CN2CCOCC2)cc1)c1ccccc1F,"inconclusive: 18.4 µM [activator, partial curve]",
CC(C)CC(=O)Nc1ccc(-c2nc3ccccc3c(=O)[nH]2)cc1,active: 6.51 µM,
O=c1c(-c2ccc(O)cc2)coc2cc(O)cc(O)c12,active: 16.4 µM,
CCNC(=O)NC(=O)C(C)OC(=O)C1CCN(S(=O)(=O)c2ccccc2C(=O)OC)CC1 (stereo unspecified),,inactive: -0.713%
N/C(=N\OC(=O)c1ccc(Cl)cc1Cl)c1ccncc1,active: 9.2 µM,
CN(C)/C=C/c1onc(-c2c(F)cccc2Cl)c1C#N,"inconclusive: 22.4 µM [activator, partial curve, poor fit]",
CC(=O)c1ccc(NC(=O)CN2C(=O)/C(=C/C=C/c3ccccc3)SC2=S)cc1,,inactive: 4.36%
O=C(COc1ccc(F)cc1Br)NCC1COc2ccccc2O1 (stereo unspecified),,inactive: 0.352%
Nc1cccc(C(=O)OCC(=O)c2ccccc2)c1,"inconclusive: 25.9 µM [activator, single point]",
COc1ccc(OCC(=O)N2CCC(n3nccc3NC(=O)C3CC3)CC2)cc1,,inactive: 1.02%
Cc1ccnc(N(C(=O)Nc2ccccc2)C2=NCC(C)(C)S2)c1,"inconclusive: 18.3 µM [activator, partial curve]",
COc1ccccc1CNC(=O)CN1C(=O)NC2(CCOc3ccccc32)C1=O (stereo unspecified),,inactive: 1.76%
CCn1c(SC(C)C)nnc1C1CCN(S(=O)(=O)c2ccc(OC)cc2)CC1,,inactive: -2.09%
Cc1occc1-c1nnc(SCC(=O)N2CCCCC2)o1,,inactive: 8.59%
Cc1c(Cl)c(C(=O)NNC(=S)Nc2ccccc2)nn1C,"inconclusive: 14.6 µM [activator, partial curve, poor fit]",
Cc1ccc(-n2[nH]c(=O)c(-c3ccccn3)c2C)cc1,"inconclusive: 0.146 µM [activator, full curve]",
CC(=O)Nc1ccc(-c2ccc3nnc(C)n3n2)cc1,"inconclusive: 23.1 µM [activator, single point]",
COc1ccccc1/C=C/C=N/n1c(-c2ccc(F)cc2)n[nH]c1=S,,inactive: 0.214%
COc1ccc(NC(=O)/C=C/c2ccco2)cn1,"inconclusive: 20.6 µM [activator, partial curve]",

SMILES,Potency,"activity change, positive = activation"
Cc1ccc(C(=O)Nc2ncc(Cc3ccccc3)s2)o1,"inconclusive: 2.91 µM [activator, partial curve]",
Cc1cc(C(=O)COC(=O)c2ccc(O)cc2)c(C)n1Cc1ccco1,"inconclusive: 5.8 µM [activator, partial curve]",
Cn1c(CNc2ccc(Cl)cc2)nc2ccccc21,active: 4.61 µM,
Nc1ccc(-c2nnn(Cc3ccccc3F)n2)cc1,"inconclusive: 18.3 µM [activator, single point]",
O=C(CN1C(=O)c2cccc3cccc(c23)C1=O)N1CCN(Cc2ccc3c(c2)OCO3)CC1,,inactive: -41.5%
Cc1ccccc1C(=O)c1ccc2c(c1)n(C)c(=O)n2C,"inconclusive: 12.6 µM [activator, partial curve, poor fit]",
COc1cccc(-c2nnn(CC(=O)N3CCCCC3)n2)c1,,inactive: 12.3%
O=C(CNC(=O)c1ccccc1)c1ccccc1,"inconclusive: 4.11 µM [activator, full curve]",
Cc1ccccc1NC(=S)NC(=O)COc1ccccc1C,,inactive: -3.71%
COc1cc(OC)cc(-c2nnc(SCc3c(F)cccc3Cl)o2)c1,"inconclusive: 16.4 µM [activator, partial curve, poor fit]",
CSCCC(NC(=O)c1ccccc1Br)C(=O)NNC(=O)c1ccco1 (stereo unspecified),,inactive: 1.13%
C=CCn1c(SCC(=O)NCC(c2ccccc2)N(C)C)nnc1C1CCCCC1 (stereo unspecified),,inactive: 3.61%
CCCS(=O)(=O)NCCc1cc2ccc(OC)cc2[nH]c1=O,"inconclusive: 23.1 µM [activator, partial curve, poor fit]",
COC(=O)c1ccc(OCC(=O)c2ccccc2)cc1,"inconclusive: 11.6 µM [activator, partial curve, poor fit]",
CC1Cc2ccccc2N1S(=O)(=O)c1cccc2nsnc12 (stereo unspecified),,inactive: -4.38%
COc1ccccc1C(=O)COC(=O)COc1cccc2c1OC(C)(C)C2,active: 9.2 µM,
Cc1ccc(NC(=O)COc2ccc3c(c2)OCO3)c(Cl)c1,"inconclusive: 4.61 µM [activator, partial curve, poor fit]",
CC(C)Oc1cccc(C(=O)NC2=NCCS2)c1,,inactive: -17.3%
Cc1cc(OCC(=O)O/N=C(\N)Cc2cccs2)ccc1Br,,inactive: -0.751%
Cc1cccc(N2CCN(C(=O)c3ccc4ncsc4c3)CC2)c1C,"inconclusive: 3.98 µM [activator, partial curve]",
CC1CCCCN1C(=O)c1cc(-c2ccc(Cl)c(Cl)c2)on1 (stereo unspecified),"inconclusive: 11.6 µM [activator, partial curve, poor fit]",
Cc1ccc(C(=O)N/N=C/C=C/c2ccccc2)o1,"inconclusive: 23.1 µM [activator, partial curve, poor fit]",
O=C(CSc1nnc(-c2ccc(O)cc2)o1)Nc1ccccc1,active: 8.2 µM,
Cc1ccc(C)c(NS(=O)(=O)c2ccc(-c3cnc(C4CC4)o3)cc2)c1,"inconclusive: 2.59 µM [activator, partial curve, poor fit]",
